Laboratory results: PubChem BioAssay (NCATS)
“And” between values parts separate entries of the source, which are not always exact repeats. Equal entries are not always repeated. Inconclusive results, whose numbers are uncertain, are shown with a selection of clear calls. For some assays here: Potencies of inconclusive entries are left out as doubtful fits. The source made the active and inactive calls. Unless noted, calls follow the shape of the dose curve; as a rule, active = well fitted curve in the direction sought with a large enough effect; inconclusive = small, poorly fitted or top-dose-only effect, or another doubt; inactive = no such curve, though single readings can be large; an effect the other way counts as inactive or inconclusive.

How the values were obtained:
[1] = NFAT Signaling Pathway (AID 444; active = well fitted curve in either direction with a large enough effect, not every such curve was filed as active; inconclusive = small, poorly fitted or top-dose-only effect, or another doubt;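 also: carbachol stimulus at about its EC50 of 1 µM final; % is scaled to controls: 0 for no effect and ±100 for the full control effect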); details: Jurkat NFAT-bla M1, carbachol, beta-lactamase ratio, 5 h; at 17.2 µM (top of the series)
Procedure, shortened: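 Read-out: CCF4 FRET ratio (460 nm/530 nm) after 1 h RT dye loading, used for %activity and AC50 from titration series. Cells: Jurkat NFAT-β-lactamase/M1 line, treated with compound plus 1 uM carbachol for 5 h, 37 °C.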

[2] = Stat Signaling Pathway (AID 446; active = well fitted curve in either direction with a large enough effect, not every such curve was filed as active; inconclusive = small, poorly fitted or top-dose-only effect, or another doubt;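 also: ME-180 cervical cancer cells given 40 pM IL-6 alongside compound; SIE-controlled beta-lactamase reporter measured as 460/530 nm FRET emission ratio; top concentration of the series differs between compounds; % is scaled to controls: 0 for no effect and ±100 for the full control effect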); details: ME-180 (cervical carcinoma) SIE beta-lactamase reporter, IL-6 stimulated, 5 h; at 17.2 µM (top of the series)
Procedure, shortened: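 IL-6/STAT signaling read in ME-180 cells via an SIE beta-lactamase reporter. Stimulus was 40 pM IL-6 (its AC50) for 5 hrs, so both activation and inhibition register.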

[3] = target: Mitogen-activated protein kinase 10 (Mus musculus) (UniProt Q61831); test: JNK3 AlphaScreen Assay (AID 530; active = well fitted curve in either direction with a large enough effect, not every such curve was filed as active; inconclusive = small, poorly fitted or top-dose-only effect, or another doubt;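 also: kinase came from lysate of stimulated human HepG2 cells; signal reports phosphorylation of biotinylated GST-cJun 1-79 at Ser73 with 10 µM ATP; potency is read from the fitted curve at half-maximal effect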); details: JNK3 lysate, c-Jun phosphorylation; activity change, negative = inhibition: at 57.1 µM (top of the series)
Procedure, shortened: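 Room-temperature AlphaScreen kinase assay; pre-activated HepG2 lysate as JNK3 source, biotin-GST-cJun(1-79) substrate, 10 uM ATP, compound 15 min preincubation.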

[4] = target: Cytochrome P450 2C9 (Homo sapiens) (UniProt P11712); test: qHTS Assay for Inhibitors and Substrates of Cytochrome P450 2C9 (AID 883); also: % is scaled to controls: 0 for no effect and ±100 for the full control effect; nearly all actives have a fitted effect of over 60% in size
Sequence of UniProt P11712 (P11712 whole entry, looked up): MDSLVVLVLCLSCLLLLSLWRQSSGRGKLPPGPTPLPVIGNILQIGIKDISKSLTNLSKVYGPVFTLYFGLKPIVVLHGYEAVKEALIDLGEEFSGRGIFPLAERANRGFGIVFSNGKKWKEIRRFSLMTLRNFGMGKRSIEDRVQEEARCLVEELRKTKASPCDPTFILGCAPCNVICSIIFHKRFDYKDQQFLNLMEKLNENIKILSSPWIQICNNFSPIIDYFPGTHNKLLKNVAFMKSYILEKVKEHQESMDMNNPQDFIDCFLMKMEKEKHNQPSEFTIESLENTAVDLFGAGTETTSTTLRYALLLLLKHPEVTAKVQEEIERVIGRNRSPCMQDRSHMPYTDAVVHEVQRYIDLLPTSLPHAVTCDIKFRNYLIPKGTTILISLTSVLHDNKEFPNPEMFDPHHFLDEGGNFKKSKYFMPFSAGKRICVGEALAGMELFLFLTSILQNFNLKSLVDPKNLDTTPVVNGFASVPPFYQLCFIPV
Procedure, shortened: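 Turnover of Luciferin-H (100uM, KM) by 10nM human CYP2C9 was measured over 60 min at 37C with NADPH regeneration; inhibitors and some substrates reduce luminescence. Data normalized to sulphaphenazole 57uM.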

[5] = qHTS Assay for Identification of Small Molecule Antagonists for Thrombopoietin (TPO) Signaling Pathway (AID 918); details: TPO-dependent cell signaling reporter, antagonist mode; activity change, negative = inhibition: at 38.5 µM (top of the series); also: nearly all actives have a fitted effect of over 60% in size
Procedure, shortened: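 Murine Ba/F3 cells stably expressing human TPO receptor and a Glycoprotein IIb promoter–luciferase reporter were IL-3-starved overnight, treated with compounds plus TPO (26 pM final, its EC50) for 24 hrs at 37 C, then read by luminescence.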

[6] = qHTS for differential inhibitors of proliferation of Plasmodium falciparum line W2 (AID 1883); details: Potency: Plasmodium falciparum W2 proliferation inhibition;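 also: potency is read from the fitted curve at half-maximal effect; parasites grown with compound for 72 h before lysis and staining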
[7] = target: RecQ-like DNA helicase BLM (Homo sapiens) (UniProt P54132); test: qHTS Validation Assay for Inhibitors of Bloom's syndrome helicase (BLM) (AID 2364); also: potency is read from the fitted curve at half-maximal effect
Sequence of UniProt P54132 (P54132 whole entry, looked up): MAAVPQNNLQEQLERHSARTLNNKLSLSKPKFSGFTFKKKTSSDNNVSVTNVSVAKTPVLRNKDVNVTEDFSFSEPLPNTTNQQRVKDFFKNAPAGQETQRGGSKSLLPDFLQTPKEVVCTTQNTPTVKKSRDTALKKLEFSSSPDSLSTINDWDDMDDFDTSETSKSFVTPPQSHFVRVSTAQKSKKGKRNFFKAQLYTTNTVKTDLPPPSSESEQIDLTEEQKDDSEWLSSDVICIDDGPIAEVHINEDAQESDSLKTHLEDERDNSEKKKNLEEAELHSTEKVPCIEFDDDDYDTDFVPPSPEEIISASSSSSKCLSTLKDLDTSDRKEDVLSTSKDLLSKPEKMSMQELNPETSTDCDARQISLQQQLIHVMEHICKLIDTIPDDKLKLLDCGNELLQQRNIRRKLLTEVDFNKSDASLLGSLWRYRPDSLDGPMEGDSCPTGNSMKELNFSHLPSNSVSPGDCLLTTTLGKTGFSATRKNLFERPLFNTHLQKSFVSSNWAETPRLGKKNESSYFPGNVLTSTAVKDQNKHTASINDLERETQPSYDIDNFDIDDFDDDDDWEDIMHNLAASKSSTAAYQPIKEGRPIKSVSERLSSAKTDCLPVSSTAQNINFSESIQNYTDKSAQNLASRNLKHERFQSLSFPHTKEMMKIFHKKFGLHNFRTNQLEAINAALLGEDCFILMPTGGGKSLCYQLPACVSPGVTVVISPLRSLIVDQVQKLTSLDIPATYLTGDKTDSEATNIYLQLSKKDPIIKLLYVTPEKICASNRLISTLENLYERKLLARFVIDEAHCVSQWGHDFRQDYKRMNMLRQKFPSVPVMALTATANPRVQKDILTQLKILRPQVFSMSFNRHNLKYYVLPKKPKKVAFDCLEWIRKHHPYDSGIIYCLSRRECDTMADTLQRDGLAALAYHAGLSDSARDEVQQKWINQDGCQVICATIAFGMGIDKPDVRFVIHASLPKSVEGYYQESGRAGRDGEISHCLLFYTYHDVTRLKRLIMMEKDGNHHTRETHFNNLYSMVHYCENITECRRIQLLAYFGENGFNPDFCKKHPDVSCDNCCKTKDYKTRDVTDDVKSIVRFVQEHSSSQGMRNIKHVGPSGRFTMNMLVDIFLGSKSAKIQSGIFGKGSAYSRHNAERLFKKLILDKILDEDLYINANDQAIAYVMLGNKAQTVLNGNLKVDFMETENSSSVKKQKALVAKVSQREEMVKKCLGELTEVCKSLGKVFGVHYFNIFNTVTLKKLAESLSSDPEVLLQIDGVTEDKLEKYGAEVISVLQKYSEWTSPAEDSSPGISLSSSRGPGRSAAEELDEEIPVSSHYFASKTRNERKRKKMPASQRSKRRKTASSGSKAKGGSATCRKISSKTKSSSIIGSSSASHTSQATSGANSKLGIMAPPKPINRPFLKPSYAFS
Procedure, shortened: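 Forked 20-bp duplex substrate (200 nM, TAMRA/BHQ-2) plus 2 mM ATP added after 15 min compound preincubation with 50 nM enzyme, pH 8.0, poly(dI-dC) 2.5 ug/ml. Strand separation followed by fluorescence (525/598 nm) over 2 h, normalized to enzyme-free and DMSO controls.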

[8] = Quantitative high throughput screen for delayed death inhibitors of the malarial parasite plastid, 96 hour incubation (AID 488745); also: % is scaled to controls: 0 for no effect and ±100 for the full control effect; nearly all actives have a fitted effect of over 70% in size
Procedure, shortened: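 P. falciparum carrying an integrated firefly luciferase reporter, grown in erythrocytes (2% hematocrit, 0.1% parasitemia final) in RPMI 1640/0.5% Albumax, was exposed to compound for 96 h (two generations) at 37 C, 5% CO2. Luminescence decrease indicated growth inhibition.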

[9] = target: Chromobox protein homolog 1 (Homo sapiens) (UniProt P83916); test: qHTS Validation Assay for Inhibitors of HP1-beta Chromodomain Interactions with Methylated Histone Tails (AID 488953); also: potency is read from the fitted curve at half-maximal effect; nearly all actives have a fitted effect of over 50% in size
Sequence of UniProt P83916 (P83916 whole entry, looked up): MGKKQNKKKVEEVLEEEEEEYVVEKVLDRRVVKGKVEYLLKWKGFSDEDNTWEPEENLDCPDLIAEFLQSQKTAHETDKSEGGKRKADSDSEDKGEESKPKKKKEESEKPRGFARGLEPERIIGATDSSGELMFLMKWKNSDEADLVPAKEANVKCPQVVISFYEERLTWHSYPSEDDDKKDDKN
Procedure, shortened: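 HP1-beta (50 nM) was preincubated 30 min at room temperature with biotinylated H3(1-18)K9me3 peptide (50 nM) in PBS pH 7.4, 0.01% Tween-20, then with compounds 30 min. AlphaScreen signal was read after streptavidin donor/nickel chelate acceptor beads (10 ug/mL final).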

[10] = Nrf2 qHTS screen for inhibitors: Validation (AID 493153; active = well fitted inhibition curve with a large enough effect in the main read-out, with a control signal flat, not every such curve was filed as active; inconclusive = small, poorly fitted or top-dose-only effect, or effect the other way, or a change in a side signal; inactive = no such curve, though single readings can be large or run the other way; also: % of control where 0% means no effect)
Procedure, shortened: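 A549 cells carrying an ARE-driven firefly luciferase reporter, in 5% FBS OPTI-MEM, were treated with compounds in concentration-response for 18-24 h at 37°C. Viability was read by CellTiter-Fluor fluorescence, then Nrf2 activity by luciferase luminescence.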

[11] = qHTS for Inhibitors of ATXN expression: Validation of Cytotoxic Assay (AID 588349); also: % is scaled to controls: 0 for no effect and ±100 for the full control effect
Procedure, shortened: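 HEK293 cells were dosed with titrated compounds for 72 hr at 37 degrees C. Viability was read by CellTiter Glo luminescence, with intracellular ATP as the marker of cell survival.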

[12] = qHTS for Inhibitors of ATXN expression: Validation (AID 588378); also: % is scaled to controls: 0 for no effect and ±100 for the full control effect; nearly all actives have a fitted effect of over 75% in size
Procedure, shortened: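 Luminescence from an ATXN2-FFLuc reporter in HEK293 cells served as read-out after 24 h compound treatment at 37 degrees C; CellTiter-Fluor fluorescence was recorded first to assess viability.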

[13] = Natriuretic polypeptide receptor (hNpr1) antagonism - Pilot counterscreen GloSensor control cell line (AID 1347045; calls by dose curve; also: % is scaled to controls: 0 for no effect and ±100 for the full control effect)
Procedure, shortened: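 HEK293 cells carrying the GloSensor cGMP sensor (GIP/pGS-40F) were loaded with 2% GloSensor reagent for 2 h, exposed to compounds for 30 min, and then stimulated with 50 uM sodium nitroprusside for 20 min at room temperature.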

[14] = qHTS of pediatric cancer cell lines to identify multiple opportunities for drug repurposing: Primary screen for TC32 cells (AID 1347089); also: potency is read from the fitted curve at half-maximal effect; nearly all actives have a fitted effect of over 60% in size
Procedure, shortened: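 Luminescent CellTiter-Glo read-out of metabolically active TC32 cells after 48 h compound exposure. Primary: MIPE 11-point, 0.78 nM–46 µM; NPC 8-point, 0.59 nM–46 µM. Confirmatory: 11-point dilutions.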

[15] = qHTS of pediatric cancer cell lines to identify multiple opportunities for drug repurposing: Primary screen for OHS-50 cells (AID 1347103); details: OHS-50 osteosarcoma viability, CellTiter-Glo luminescence, 48 h; activity change, negative = cytotoxic: at 57.3 µM (top of the series);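 also: plate controls were DMSO neutral control for no effect and bortezomib positive control for full effect; nearly all actives have a fitted effect of over 40% in size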
Procedure, shortened: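 Cells (500-1,000/well) rested 5 h, then received compounds for 48 h; metabolically active cells were measured by CellTiter-Glo luminescence. Final concentrations spanned up to 46 µM (MIPE, 11-point) or 0.59 nM-46 µM (NPC, 8-point) in primary screens, 11-point in follow-ups.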

[16] = target: N-terminal Xaa-Pro-Lys N-methyltransferase 1 (Homo sapiens) (UniProt Q9BV86); test: qHTS Assay for Inhibitors of N-terminal methyltransferase 1 (NTMT1): LOPAC validation of the NTMT1 SAHH-coupled ThioGlo3 Assay (AID 1347143);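 also: SAH from peptide methylation measured as thiol fluorescence via SAHH coupling and ThioGlo3; % is scaled to controls: 0 for no effect and ±100 for the full control effect; nearly all actives have a fitted effect of over 70% in size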
Sequence of UniProt Q9BV86 (Q9BV86 whole entry, looked up): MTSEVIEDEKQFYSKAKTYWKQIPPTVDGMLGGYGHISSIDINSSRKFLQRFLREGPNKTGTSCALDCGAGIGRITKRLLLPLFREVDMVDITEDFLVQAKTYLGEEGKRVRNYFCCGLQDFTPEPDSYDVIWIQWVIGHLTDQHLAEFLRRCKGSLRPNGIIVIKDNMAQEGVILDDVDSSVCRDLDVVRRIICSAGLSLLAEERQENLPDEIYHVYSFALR
Procedure, shortened: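 Inhibition of NTMT1 methylation of peptide SPKRIA is followed by converting SAH with SAHH and labelling the released thiol with ThioGlo3. Plates are read at 340/450nm before and 30 min after reagent addition, both at room temperature.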

[17] = qHTS to identify inhibitors of the type 1 interferon - major histocompatibility complex class I in skeletal muscle: primary screen against the NCATS Mechanism Interrogation Plate v5.0 (MIPE) Libary (AID 1347411); details: iHSKM cells + IFN-b, HiBiT-tagged MHC-I luminescence, 24 h; activity change, negative = inhibition: at 45.8 µM (top of the series) unless noted;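 also: plate controls were vehicle for no effect and reference inhibitor for full effect; nearly all actives have a fitted effect of over 65% in size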
Procedure, shortened: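 Immortalized human C25cl48 myoblasts with HiBit knocked into endogenous HLA-B*08:01 were stimulated with 4.0 ng/ml IFN-beta and exposed to compounds (11-point 1:3 titration, top 46 uM final) for 24 hrs at 37 C; HiBiT lytic luminescence measured.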

[18] = Primary qHTS for small molecule stabilizers of the endoplasmic reticulum resident proteome: Secreted ER Calcium Modulated Protein (SERCaMP) assay (AID 1508630); details: SH-SY5Y GLuc-SERCaMP (Gaussia luciferase released on ER calcium loss) secretion, thapsigargin, luminescence; activity change, negative = inhibition: at 38.4 µM (top of the series) unless noted; also: potency is read from the fitted curve at half-maximal effect
Procedure, shortened: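 GLuc-SERCaMP-expressing SH-SY5Y cells, pretreated 16 h with compound, are challenged with thapsigargin to empty ER calcium stores; after 4 h, coelenterazine is added directly to the medium and luminescence is imaged.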

[19] = target: Cytochrome P450 2C9 (Homo sapiens) (UniProt P11712); test: Cytochrome P450 family 2 subfamily C member 9 (CYP2C9) small molecule antagonists: luciferase biochemical (cell-free) qHTS assay (AID 1645842; active = well fitted curve in the direction sought with a large enough effect in the repeat runs; inconclusive = weak or mixed curves; inactive = no such curve, though single readings can be large; an effect the other way counts as inactive or inconclusive; also: % is scaled to controls: 0 for no effect and ±100 for the full control effect; nearly all actives have a fitted effect of over 55% in size)
Procedure, shortened: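 Luminescence, after 20 min with luciferin detection reagent, reflected CYP2C9 turnover during a 1 h NADPH-driven reaction at 37C. Enzyme-substrate mix contained 0.4% bovine serum albumin and was preincubated with compound 10 min at room temperature.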

[20] = Quantitative High-Throughput drug screen in 47 multiple myeloma cell lines against the NCATS MIPE library collection: AMO1_DSMZ cell viability assay (AID 1918927; also: nearly all actives have a fitted effect of over 30% in size); details: AMO1 myeloma cells viability, CellTiter-Glo ATP luminescence, 48 h; viability, % of DMSO: at 45.8 µM (top of the series)
Procedure, shortened: (§1)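 Approved and investigational drugs from MIPE 4.0 were added by pin tool to 500 cells per well. After 48 hours at 37C, ATP-based CellTiter-Glo luminescence indicated remaining viability.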

[21] = Quantitative High-Throughput drug screen in 47 multiple myeloma cell lines against the NCATS MIPE library collection: ARP1_JJKsccF8 cell viability assay (AID 1918928; also: potency is read from the fitted curve at half-maximal effect; nearly all actives have a fitted effect of over 40% in size)
Procedure, shortened: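 Luminescence from CellTiter-Glo, taken after 5 min at room temperature, reports cellular ATP as viability. Cells (500 per well) had been treated 48 h at 37 °C with MIPE 4.0 compounds, scaled between DMSO and medium-only controls.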

[22] = Quantitative High-Throughput drug screen in 47 multiple myeloma cell lines against the NCATS MIPE library collection: Karpas417_ECACC cell viability assay (AID 1918961); details: Karpas417 myeloma viability, CellTiter-Glo ATP luminescence, 48 h; viability (% of DMSO): at 45.8 µM (top of the series)
Procedure, shortened: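 We plated 500 myeloma cells per well, pinned in MIPE 4.0 compounds, and incubated for 48 hours at 37C. ATP was then quantified with CellTiter-Glo, with DMSO and media-only wells defining 100% and 0%.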

[23] = Quantitative High-Throughput drug screen in 47 multiple myeloma cell lines against the NCATS MIPE library collection: KHM11_PLB cell viability assay (AID 1918962); also: potency is read from the fitted curve at half-maximal effect; nearly all actives have a fitted effect of over 35% in size
Procedure, shortened: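 Primary qHTS used for cherry-picking: cells at 500/well, library compounds for 48 h (37C, 5% CO2), luminescent ATP assay.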

[24] = Quantitative High-Throughput drug screen in 47 multiple myeloma cell lines against the NCATS MIPE library collection: JIM1_ECACC cell viability assay (AID 1918964); details: JIM1 myeloma viability, CellTiter-Glo ATP luminescence, 48 h; viability (% of DMSO): at 45.8 µM (top of the series)
Procedure, shortened: as §1

[25] = Quantitative High-Throughput drug screen in 47 multiple myeloma cell lines against the NCATS MIPE library collection: JJN3_DSMZ cell viability assay (AID 1918966; also: nearly all actives have a fitted effect of over 50% in size); details: JJN3 myeloma cells viability, CellTiter-Glo ATP, 48 h; viability, % of DMSO: at 45.8 µM (top of the series)
Procedure, shortened: as §1

[26] = Quantitative High-Throughput drug screen in 47 multiple myeloma cell lines against the NCATS MIPE library collection: H1112_PLB cell viability assay (AID 1918967; also: nearly all actives have a fitted effect of over 30% in size)
Procedure, shortened: as §1
Tags tell the direction and shape of the fitted curve.

Question: Which activity change, negative = inhibition [1] does the source give for N[C@@H]1CONC1=O here?
Answer: The activity change, negative = inhibition was inconclusive: -31.8% [inhibitor].

Question: And the activity, negative = inhibition [2]?
Answer: Its activity, negative = inhibition is inconclusive: 9.72% [activator].

Question: And the Potency [3]?
Answer: The Potency was inconclusive [activator, partial curve].

Question: What about the Potency [4] of the same molecule?
Answer: Its Potency is “inactive”.

Question: And the activity change, negative = inhibition [5]?
Answer: Its activity change, negative = inhibition is inconclusive: -10.8% [phenotype inactive] and inconclusive: -1.5% [phenotype inactive] and inconclusive: -17.7% [phenotype inactive].

Question: What about the Potency [6] of the same molecule?
Answer: Its Potency is inconclusive [inhibitor, partial curve, poor fit].

Question: And the Potency [7]?
Answer: Its Potency is inconclusive [inhibitor, partial curve, poor fit].

Question: And the Potency [8]?
Answer: The Potency was “inactive”.

Question: What about the Potency [9] of the same molecule?
Answer: Its Potency is inconclusive [inhibitor, single point].

Question: And the Potency [10]?
Answer: Its Potency is “inactive”.

Question: And the Potency [11]?
Answer: The Potency was “inactive”.

Question: And the Potency [12]?
Answer: The Potency was “inactive”.

Question: What about the Potency [13] of the same molecule?
Answer: The Potency was “inactive”.

Question: And the Potency [14]?
Answer: Its Potency is inconclusive [cytotoxic, single point].

Question: What about the Potency [15] of the same molecule?
Answer: Its Potency is “inactive”.

Question: What about the Potency [16] of the same molecule?
Answer: The Potency was “inactive”.

Question: What about the Potency [17] of the same molecule?
Answer: The Potency was “inactive”.

Question: And the Potency [18]?
Answer: Its Potency is inconclusive [inhibitor, full curve, poor fit].

Question: And the Potency [19]?
Answer: The Potency was “inactive”.

Question: What about the Potency [20] of the same molecule?
Answer: Its Potency is “inactive”.

Question: And the Potency [21]?
Answer: Its Potency is inconclusive [rising, partial curve, poor fit].

Question: What about the Potency [22] of the same molecule?
Answer: The Potency was “inactive”.

Question: What about the Potency [23] of the same molecule?
Answer: The Potency was inconclusive [rising, full curve, poor fit].

Question: What about the Potency [24] of the same molecule?
Answer: The Potency was “inactive”.

Question: And the Potency [25]?
Answer: The Potency was “inactive”.

Question: What about the Potency [26] of the same molecule?
Answer: The Potency was “inactive”.
